In PubChem BioAssay AID1508623 (National Center for Advancing Translational Sciences (NCATS), 2021):
The whole screen tested about 48,000 compounds, of which about 450 (0.94%) were called active. Roughly 19% stayed inconclusive and do not appear here. Calls follow the shape of the dose curve; as a rule, active = well fitted inhibition curve with a large enough effect; inconclusive = small, poorly fitted or top-dose-only effect; inactive = no such curve, though single readings can be large or run the other way. The list shows a part of the results.

Experiment: Primary qHTS for Identification of Small Molecule Inhibitors of Huntingtin Promoter Activity; also: nearly all actives have a fitted effect of over 50% in size
Conditions: HEK293 HTT promoter firefly luciferase reporter (activity 0% = vehicle and -100% = no light), 24 h; series mostly up to 57.5 µM; activity change, negative = inhibition: at the top concentration
Procedure, shortened: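 Firefly luciferase readout (Dual-Glo, 10 min RT) after 24 h, 37 °C compound exposure (final up to 57.5 uM) of HEK293 reporter cells cultured 24 h beforehand; PTC124 at 50 uM final as control inhibitor; activity scaled vehicle 0%, zero RLU -100%.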
Potency is read from the fitted curve at half-maximal effect.

| Compound | activity change, negative = inhibition | Potency |
| --- | --- | --- |
| Cc1cccc(NC(=O)CN(C)S(=O)(=O)c2cnc[nH]2)c1C | inactive: -2.79% |  |
| Cc1cc(C)c(NC(=O)CN2C(=O)CCn3nc(-c4cccn4C)cc32)c(C)c1 | inactive: -23.6% |  |
| Cc1ccc(-n2ncc(C(=O)NCCCN3CCN(C)CC3)c2C2CCN(C(=O)OC(C)(C)C)CC2)cc1 | inactive: 1.74% |  |
| CCCCNc1cc(N2CCN(C3CCCCC3)CC2)c2noc3c2c1C(=O)c1ccccc1-3 | inactive: 4.18% |  |
| CCCCC(=O)N1CCN(c2nc3c(C)c(C)ccc3s2)CC1 | inactive: -19.1% |  |
| Cc1cc(C)c(NC(=O)CSc2cn(CC(=O)N3CCOCC3)c3ccccc23)c(C)c1 | inactive: -15.4% |  |
| COc1cccc(Cn2c(=O)n(CC3CCC(C(=O)N4CCOCC4)CC3)c(=O)c3sccc32)c1 (stereo not drawn) | inactive: -24.3% |  |
| Cc1oc2ncn(CC(C)C)c(=O)c2c1C(=O)NCCCN1CCCCC1C (stereo not drawn) | inactive: 0% |  |
| Cc1cc(C)c2c(n1)SCC(=O)N2CC(=O)Nc1cccc(C)c1C | inactive: -25.2% |  |
| CCOc1ccc(NC(=O)c2oc3ccccc3c2NC(=O)Cc2cccs2)cc1 | inactive: 1.54% |  |
| CCN1CCN(C(=O)c2ccc3c(c2)N(Cc2ccc(Cl)cc2)C(=O)c2ccccc2S3=O)CC1 (stereo not drawn) | inactive: -20% |  |
| CCc1ccc(Cn2c(CNS(=O)(=O)c3ccc4c(c3)CCCC4)nc3cccnc32)cc1 | inactive: -6.22% |  |
| CCc1ccc2c(c1)c(=O)c(C(=O)c1ccccc1)cn2CC(=O)Nc1ccc(C)c(Cl)c1 | inactive: -10% |  |
| CCc1ccc2c(c1)c(=O)c(C(=O)c1ccc(C)cc1)cn2CC(=O)Nc1ccccc1C | inactive: -17.7% |  |
| COc1ccc(-c2nnc(SCC(=O)NCCc3ccccc3)nc2-c2ccc(OC)cc2)cc1 | inactive: 8.81% |  |
| Cc1cccc(C)c1OCC(=O)Nc1c(C(=O)c2ccccc2)oc2ccccc12 | inactive: -6.53% |  |
| COc1ccc(-c2c(C)nn3c(-c4ccccc4)cc(-c4ccccc4)nc23)cc1 | inactive: -13.1% |  |
| Cc1ccc(NC(=O)CSc2nc3nccnc3c(=O)n2CCc2c[nH]c3ccccc23)c(C)c1 | inactive: -13.8% |  |
| Cc1ccc(C)c(N2CCN(C(=O)c3cccn4c(=O)c5ccccc5nc34)CC2)c1 | inactive: -20.3% |  |
| CC(C)C[C@@H](N)C(=O)O | inactive: -3.86% [at 25.2 µM] |  |

| Compound | activity change, negative = inhibition | Potency |
| --- | --- | --- |
| CCCCOC(=O)c1ccc(NC(=O)c2cc(=O)c3ccccc3o2)cc1 | inactive: -16.8% |  |
| O=C(O)CCCn1cc(NC(=O)COc2ccccc2F)cn1 | inactive: -18.6% |  |
| CCc1ccc(C(=O)c2cn(CC(=O)Nc3ccc(OC)cc3)c3cc4c(cc3c2=O)OCCO4)cc1 | inactive: -10.2% |  |
| Cc1ccc(OCCSc2nc3ccccc3n2CC(=O)NC(C)C)cc1 | inactive: -15.9% |  |
| O=C(CSc1ncc2c(n1)-c1cc(Cl)ccc1N(Cc1ccccc1)S2(=O)=O)NCc1ccccc1 | inactive: -18.6% |  |
| Cc1ccc(-c2nnn3c2nc(N2CCC(C)CC2)c2ccccc23)cc1 | inactive: 2.59% |  |
| Fc1ccc(Nc2c(-c3c[nH]c4ccccc34)nc3ccccn23)cc1 | inactive: 17.2% |  |
| Cc1ccc(C(=O)Nc2nnc(S(=O)(=O)N3CCCc4ccccc43)s2)cc1 | inactive: 11.8% |  |
| COc1ccc(CCNC(=O)c2ccc(CSCc3ccc(C)cc3)o2)cc1OC |  | active: 25.1 µM |
| COc1ccc(C(=O)Nc2ccc3nc(N4CCCCC4)cc(C)c3c2)cc1OC | inactive: -17.8% |  |
| Cc1cccc(CSc2ccc3nnc(CCNS(=O)(=O)c4ccccc4)n3n2)c1 | inactive: -26.8% |  |
| O=S(=O)(c1ccc(Cl)cc1)N1CCC(c2ccncc2)CC1 | inactive: -7.46% |  |
| O=C(Nc1nnc(S(=O)(=O)N2CCOCC2)s1)c1cccc(Br)c1 | inactive: -14.4% |  |
| Cc1nc2c(C(=O)NCCc3ccccc3)c[nH]n2c(=O)c1Cc1ccccc1F | inactive: -9.32% |  |
| COc1cccc(C(=O)Nc2ccc(C(=O)OCc3cc(=O)n4cc(C)sc4n3)cc2)c1 | inactive: 18.3% |  |
| COc1cc(NS(=O)(=O)c2cc3c(cc2C)n(C)c(=O)c(=O)n3C)cc(OC)c1 | inactive: -3.21% |  |
| COc1cc(NC(=O)NCCn2nnc3cc(S(=O)(=O)N(C)C)ccc32)cc(OC)c1OC | inactive: -8% |  |
| COc1cc(NC(=O)c2cc3cc4ccc(OC)c(Cl)c4nc3s2)cc(OC)c1 | inactive: -4.1% |  |
| CCC(Sc1ccc2nnc(CCNS(=O)(=O)c3ccc(OC)cc3)n2n1)C(=O)OC (stereo not drawn) | inactive: -1.67% |  |
| Cc1ccccc1C(=O)NC1(C(F)(F)F)C(=O)Nc2c1c(=O)[nH]c(=O)n2CCc1ccccc1 (stereo not drawn) | inactive: -4.36% |  |

| Compound | activity change, negative = inhibition | Potency |
| --- | --- | --- |
| COc1ccc(-c2nc3c4ccccc4n(CC(=O)Nc4ccc(C(C)=O)cc4)c(=O)n3n2)cc1 | inactive: 10.3% |  |
| Cc1nc2ccc(S(=O)(=O)NCC(=O)Nc3ccc(C)c(Cl)c3)cc2s1 | inactive: -11.8% |  |
| Cc1cc(C)cc(NC(=O)CSc2nc3c(cnn3-c3ccc(F)cc3)c(=O)[nH]2)c1 | inactive: -11.4% |  |
| O=C(NC1CCCCCC1)C1CCN(C(=O)N2CCOc3ccc(Cl)cc32)CC1 | inactive: -17% |  |
| CCCCc1nn2c(=O)cc(COC(=O)c3cccc(NC(=O)COc4ccccc4)c3)nc2s1 | inactive: 19.9% |  |
| Cc1ccc(C2=NN(CC(=O)NCCCN(CC(C)C)CC(C)C)C(=O)CC2)cc1 | inactive: -1.51% |  |
| Cc1cc2[nH]c(=O)c(=O)[nH]c2cc1S(=O)(=O)NCc1ccc(F)cc1 | inactive: -0.464% |  |
| CCOCCCNC(=O)c1ccc2c(c1)NC(=O)C(CS(=O)(=O)Cc1ccc(F)cc1Cl)N2 (stereo not drawn) | inactive: -20% |  |
| Cc1cc(C)n(-c2nc3ccccc3nc2Nc2ccc(C(C)C)cc2)n1 | inactive: 3.12% |  |
| CCN(CCCNC(=O)CSc1cc(=O)n(C)c2ccccc12)c1ccccc1 | inactive: -12.9% |  |
| CCOc1cccc(NC(=O)C2CC(=O)N(C)C(=Nc3cccc(OC)c3)S2)c1 (stereo not drawn) | inactive: -25.4% |  |
| CCC(=O)OCC(=O)[C@@]1(OC(=O)CC)[C@@H](C)C[C@@H]2[C@H]3CCC4=CC(=O)C=C[C@]4(C)[C@@]3(F)[C@@H](O)C[C@@]21C | inactive: -12.8% |  |
| Cc1cc(C)c(NC(=O)C(C)n2c(=O)cc(C)c3c(C)nn(-c4ccccc4)c32)c(C)c1 (stereo not drawn) | inactive: 5.52% |  |
| CC(=O)N1CCc2c(sc3c2c(=O)n(-c2ccccc2)c(=O)n3CC(=O)c2ccc(Cl)cc2)C1 | inactive: -5.93% |  |
| O=C(NCc1cccc(F)c1)C1CCN(c2nc3ccccc3nc2C(F)(F)F)CC1 | inactive: 4.64% |  |
| COCCNC(=O)CCn1c(=O)c2cc(OC)c(OC)cc2n(CC(=O)Nc2ccc(F)c(Cl)c2)c1=O | inactive: -23% |  |
| Cc1cc(C)c(NC(=O)Cn2c(=O)n(-c3cccc(C(F)(F)F)c3)c(=O)c3c(C)c(C)sc32)c(C)c1 | inactive: -8.4% |  |
| COc1ccccc1NC(=O)C(Cc1ccccc1)NS(=O)(=O)c1ccc2c(c1)CCN2C(C)=O (stereo not drawn) | inactive: -15.9% |  |
